# Assay results as given in the supplement of paper PMC8728848.
# Some of the results follow.
# B1: Fm1D (Escherichia coli) (protein)
# chain: FSCNVDGGSSIGAGTTSVYVNLDPVIQPGQNLVVDLSQHISCWNDYGGWYDTDHINLVQGSAFAGSLQSYKGSLYWNNVTYPFPLTTNTNVLDIGDKTPMPLPLKLYITPVGAAGGVVIKAGEVIARIHMYKIATLGSGNPRNFTWNIISNNSVVMPTHHHHHH
# How the values were obtained:
# Experiment in all cases: glycan array binding signal (z-score within array); higher = stronger binding
# Conditions in all cases: glycan notation: IUPAC condensed, linker removed
# [1] = molecular target: Gal(b1-4)GlcNAc(b1-3)Gal(b1-4)GlcNAc(b1-2)[Gal(b1-4)GlcNAc(b1-3)Gal(b1-4)GlcNAc(b1-6)]Man(a1-6)[Gal(b1-4)GlcNAc(b1-3)Gal(b1-4)GlcNAc(b1-2)Man(a1-3)]Man(b1-4)GlcNAc(b1-4)[Fuc(a1-6)]GlcNAc
# Outline: (§1)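 Glycan array data came from 3228 arrays in the Consortium for Functional Glycomics database, and only arrays with an available protein sequence were kept. Glycan names were put into IUPAC-condensed notation, and columns mapping to the same glycan were averaged. The binding signal is a within-array Z-score, averaged across arrays of one protein sequence run at different concentrations or buffers and across linkers. A negative Z-score can be read as non-binding.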
# [2] = molecular target: Gal(b1-4)GlcNAc(b1-3)Gal(b1-4)GlcNAc(b1-3)Gal(b1-4)GlcNAc
# Outline: as §1
# [3] = molecular target: Gal(b1-4)GlcNAc(b1-3)Gal(b1-4)GlcNAc(b1-3)Gal(b1-4)GlcNAc(b1-2)Man(a1-3)[Gal(b1-4)GlcNAc(b1-3)Gal(b1-4)GlcNAc(b1-3)Gal(b1-4)GlcNAc(b1-2)Man(a1-6)]Man(b1-4)GlcNAc(b1-4)GlcNAc
# Outline: as §1
# [4] = molecular target: Gal(b1-4)GlcNAc(b1-3)Gal(b1-4)GlcNAc(b1-3)Gal(b1-4)GlcNAc(b1-2)Man(a1-3)[Gal(b1-4)GlcNAc(b1-3)Gal(b1-4)GlcNAc(b1-3)Gal(b1-4)GlcNAc(b1-2)Man(a1-6)]Man(b1-4)GlcNAc(b1-4)[Fuc(a1-6)]GlcNAc
# Outline: as §1
# [5] = molecular target: Gal(b1-4)GlcNAc(b1-3)Gal(b1-4)GlcNAc(b1-3)Gal(b1-4)GlcNAc(b1-2)[Gal(b1-4)GlcNAc(b1-3)Gal(b1-4)GlcNAc(b1-3)Gal(b1-4)GlcNAc(b1-6)]Man(a1-6)[Gal(b1-4)GlcNAc(b1-3)Gal(b1-4)GlcNAc(b1-3)Gal(b1-4)GlcNAc(b1-2)Man(a1-3)]Man(b1-4)GlcNAc(b1-4)[Fuc(a1-6)]GlcNAc
# Outline: as §1
# [6] = molecular target: Gal(b1-4)GlcNAc(b1-3)Gal(b1-4)GlcNAc(b1-3)Gal(b1-4)GlcNAc(b1-3)Gal(b1-4)GlcNAc(b1-2)Man(a1-3)[Gal(b1-4)GlcNAc(b1-3)Gal(b1-4)GlcNAc(b1-3)Gal(b1-4)GlcNAc(b1-3)Gal(b1-4)GlcNAc(b1-2)Man(a1-6)]Man(b1-4)GlcNAc(b1-4)GlcNAc
# Outline: as §1
# [7] = molecular target: Gal(b1-4)GlcNAc(b1-3)Gal(b1-4)GlcNAc(b1-3)Gal(b1-4)GlcNAc(b1-3)Gal(b1-4)GlcNAc(b1-2)Man(a1-3)[Gal(b1-4)GlcNAc(b1-3)Gal(b1-4)GlcNAc(b1-3)Gal(b1-4)GlcNAc(b1-3)Gal(b1-4)GlcNAc(b1-2)Man(a1-6)]Man(b1-4)GlcNAc(b1-4)[Fuc(a1-6)]GlcNAc
# Outline: as §1
# [8] = molecular target: Gal(b1-4)GlcNAc(b1-3)Gal(b1-4)GlcNAc(b1-3)Gal(b1-4)GlcNAc(b1-3)Gal(b1-4)GlcNAc(b1-2)[Gal(b1-4)GlcNAc(b1-3)Gal(b1-4)GlcNAc(b1-3)Gal(b1-4)GlcNAc(b1-3)Gal(b1-4)GlcNAc(b1-6)]Man(a1-6)[Gal(b1-4)GlcNAc(b1-3)Gal(b1-4)GlcNAc(b1-3)Gal(b1-4)GlcNAc(b1-3)Gal(b1-4)GlcNAc(b1-2)Man(a1-3)]Man(b1-4)GlcNAc(b1-4)[Fuc(a1-6)]GlcNAc
# Outline: as §1
# [9] = molecular target: Gal(b1-4)GlcNAc(b1-3)Gal(b1-4)GlcNAc(b1-3)Gal(b1-4)GlcNAc(b1-3)Gal(b1-4)GlcNAc(b1-3)Gal(b1-4)GlcNAc(b1-2)Man(a1-3)[Gal(b1-4)GlcNAc(b1-3)Gal(b1-4)GlcNAc(b1-3)Gal(b1-4)GlcNAc(b1-3)Gal(b1-4)GlcNAc(b1-3)Gal(b1-4)GlcNAc(b1-2)Man(a1-6)]Man(b1-4)GlcNAc(b1-4)GlcNAc
# Outline: as §1
# [10] = molecular target: Gal(b1-4)GlcNAc(b1-3)Gal(b1-4)GlcNAc(b1-3)Gal(b1-4)GlcNAc(b1-3)Gal(b1-4)GlcNAc(b1-3)Gal(b1-4)GlcNAc(b1-2)Man(a1-3)[Gal(b1-4)GlcNAc(b1-3)Gal(b1-4)GlcNAc(b1-3)Gal(b1-4)GlcNAc(b1-3)Gal(b1-4)GlcNAc(b1-3)Gal(b1-4)GlcNAc(b1-2)Man(a1-6)]Man(b1-4)GlcNAc(b1-4)[Fuc(a1-6)]GlcNAc
# Outline: as §1
# [11] = molecular target: Gal(b1-4)GlcNAc(b1-3)Gal(b1-4)GlcNAc(b1-3)Gal(b1-4)GlcNAc(b1-3)Gal(b1-4)GlcNAc(b1-3)Gal(b1-4)GlcNAc(b1-2)[Gal(b1-4)GlcNAc(b1-3)Gal(b1-4)GlcNAc(b1-3)Gal(b1-4)GlcNAc(b1-3)Gal(b1-4)GlcNAc(b1-3)Gal(b1-4)GlcNAc(b1-6)]Man(a1-6)[Gal(b1-4)GlcNAc(b1-3)Gal(b1-4)GlcNAc(b1-3)Gal(b1-4)GlcNAc(b1-3)Gal(b1-4)GlcNAc(b1-3)Gal(b1-4)GlcNAc(b1-2)Man(a1-3)]Man(b1-4)GlcNAc(b1-4)[Fuc(a1-6)]GlcNAc
# Outline: as §1
# [12] = molecular target: Gal(b1-4)GlcNAc(b1-3)Gal(b1-4)GlcNAc(b1-3)Gal(b1-4)GlcNAc(b1-3)Gal(b1-4)GlcNAc(b1-3)Gal(b1-4)GlcNAc(b1-3)Gal(b1-4)GlcNAc(b1-2)Man(a1-3)[Gal(b1-4)GlcNAc(b1-3)Gal(b1-4)GlcNAc(b1-3)Gal(b1-4)GlcNAc(b1-3)Gal(b1-4)GlcNAc(b1-3)Gal(b1-4)GlcNAc(b1-3)Gal(b1-4)GlcNAc(b1-2)Man(a1-6)]Man(b1-4)GlcNAc(b1-4)GlcNAc
# Outline: as §1
# [13] = molecular target: Gal(b1-4)GlcNAc(b1-3)Gal(b1-4)GlcNAc(b1-3)GalNAc
# Outline: as §1
# [14] = molecular target: Gal(b1-4)GlcNAc(b1-3)Gal(b1-4)GlcNAc(b1-3)[Gal(b1-4)GlcNAc(b1-3)Gal(b1-4)GlcNAc(b1-6)]GalNAc
# Outline: as §1
# [15] = molecular target: Gal(b1-4)GlcNAc(b1-3)Gal(b1-4)GlcNAc(b1-6)[Gal(b1-3)]GalNAc
# Outline: as §1
# [16] = molecular target: Gal(b1-4)GlcNAc(b1-3)Gal(b1-4)[Fuc(a1-3)]GlcNAc(b1-3)Gal(b1-4)[Fuc(a1-3)]GlcNAc
# Outline: as §1
# [17] = molecular target: Gal(b1-4)GlcNAc(b1-3)GalNAc
# Outline: as §1
# [18] = molecular target: Gal(b1-4)GlcNAc(b1-3)[Fuc(a1-3)GlcNAc(b1-6)]Gal(b1-4)Glc
# Outline: as §1
# [19] = molecular target: Gal(b1-4)GlcNAc(b1-3)[Gal(b1-4)GlcNAc(b1-6)]Gal(b1-4)GlcNAc
# Outline: as §1
# [20] = molecular target: Gal(b1-4)GlcNAc(b1-3)[GlcNAc(b1-6)]Gal(b1-4)GlcNAc
# Outline: as §1
# [21] = molecular target: Gal(b1-4)GlcNAc(b1-6)Gal(b1-4)GlcNAc
# Outline: as §1
# [22] = molecular target: Gal(b1-4)GlcNAc(b1-6)GalNAc
# Outline: as §1
# [23] = molecular target: Gal(b1-4)GlcNAc(b1-6)[Gal(b1-3)]GalNAc
# Outline: as §1
# [24] = molecular target: Gal(b1-4)GlcNAc(b1-6)[Gal(b1-4)GlcNAc(b1-3)]GalNAc
# Outline: as §1
# Gal(b1-4)GlcNAc6P = molecular target: Gal(b1-4)GlcNAc6P
# Outline: as §1
# Gal(b1-6)Gal = molecular target: Gal(b1-6)Gal
# Outline: as §1
# Gal3S(b1-3)GalNAc = molecular target: Gal3S(b1-3)GalNAc
# Outline: as §1
# Gal3S(b1-3)GlcNAc = molecular target: Gal3S(b1-3)GlcNAc
# Outline: as §1
# [25] = molecular target: Gal3S(b1-3)[Fuc(a1-4)]GlcNAc
# Outline: as §1
# Gal3S(b1-4)Glc = molecular target: Gal3S(b1-4)Glc
# Outline: as §1
# Gal3S(b1-4)Glc6S = molecular target: Gal3S(b1-4)Glc6S
# Outline: as §1
# Gal3S(b1-4)GlcNAc = molecular target: Gal3S(b1-4)GlcNAc
# Outline: as §1
# [26] = molecular target: Gal3S(b1-4)[Fuc(a1-3)]Glc6S
# Outline: as §1
# [27] = molecular target: Gal3S(b1-4)[Fuc(a1-3)]GlcNAc
# Outline: as §1
# [28] = molecular target: Gal3S(b1-4)[Fuc(a1-3)]GlcNAc6S
# Outline: as §1
# Gal3S4S(b1-4)GlcNAc = molecular target: Gal3S4S(b1-4)GlcNAc
# Outline: as §1
# Gal3S6S(b1-4)GlcNAc = molecular target: Gal3S6S(b1-4)GlcNAc
# Outline: as §1
# Gal3S6S(b1-4)GlcNAc6S = molecular target: Gal3S6S(b1-4)GlcNAc6S
# Outline: as §1
# Gal4S(b1-4)GlcNAc = molecular target: Gal4S(b1-4)GlcNAc
# Outline: as §1
# Gal4S6S(b1-4)GlcNAc = molecular target: Gal4S6S(b1-4)GlcNAc
# Outline: as §1
# Gal6P(b1-4)GlcNAc = molecular target: Gal6P(b1-4)GlcNAc
# Outline: as §1
# Gal6S(b1-3)GlcNAc = molecular target: Gal6S(b1-3)GlcNAc
# Outline: as §1
# Gal6S(b1-3)GlcNAc6S = molecular target: Gal6S(b1-3)GlcNAc6S
# Outline: as §1
# Gal6S(b1-4)Glc = molecular target: Gal6S(b1-4)Glc
# Outline: as §1
# Gal6S(b1-4)Glc6S = molecular target: Gal6S(b1-4)Glc6S
# Outline: as §1
binder,measurement,setting,value
B1,glycan array binding signal (z-score),[1],-0.14
same,glycan array binding signal (z-score),[2],-0.143
same,glycan array binding signal (z-score),[3],-0.136
same,glycan array binding signal (z-score),[4],-0.14
same,glycan array binding signal (z-score),[5],-0.133
same,glycan array binding signal (z-score),[6],-0.142
same,glycan array binding signal (z-score),[7],-0.131
same,glycan array binding signal (z-score),[8],-0.137
same,glycan array binding signal (z-score),[9],-0.142
same,glycan array binding signal (z-score),[10],-0.14
same,glycan array binding signal (z-score),[11],-0.132
same,glycan array binding signal (z-score),[12],-0.138
same,glycan array binding signal (z-score),[13],-0.147
same,glycan array binding signal (z-score),[14],-0.146
same,glycan array binding signal (z-score),[15],3.82
same,glycan array binding signal (z-score),[16],-0.139
same,glycan array binding signal (z-score),[17],-0.144
same,glycan array binding signal (z-score),[18],-0.149
same,glycan array binding signal (z-score),[19],-0.145
same,glycan array binding signal (z-score),[20],-0.141
same,glycan array binding signal (z-score),[21],-0.144
same,glycan array binding signal (z-score),[22],-0.137
same,glycan array binding signal (z-score),[23],10.7
same,glycan array binding signal (z-score),[24],-0.14
same,glycan array binding signal (z-score),Gal(b1-4)GlcNAc6P,-0.15
same,glycan array binding signal (z-score),Gal(b1-6)Gal,-0.047
same,glycan array binding signal (z-score),Gal3S(b1-3)GalNAc,-0.127
same,glycan array binding signal (z-score),Gal3S(b1-3)GlcNAc,-0.132
same,glycan array binding signal (z-score),[25],-0.143
same,glycan array binding signal (z-score),Gal3S(b1-4)Glc,-0.146
same,glycan array binding signal (z-score),Gal3S(b1-4)Glc6S,-0.14
same,glycan array binding signal (z-score),Gal3S(b1-4)GlcNAc,-0.144
same,glycan array binding signal (z-score),[26],-0.13
same,glycan array binding signal (z-score),[27],-0.145
same,glycan array binding signal (z-score),[28],-0.145
same,glycan array binding signal (z-score),Gal3S4S(b1-4)GlcNAc,-0.138
same,glycan array binding signal (z-score),Gal3S6S(b1-4)GlcNAc,-0.146
same,glycan array binding signal (z-score),Gal3S6S(b1-4)GlcNAc6S,-0.144
same,glycan array binding signal (z-score),Gal4S(b1-4)GlcNAc,-0.147
same,glycan array binding signal (z-score),Gal4S6S(b1-4)GlcNAc,-0.143
same,glycan array binding signal (z-score),Gal6P(b1-4)GlcNAc,-0.149
same,glycan array binding signal (z-score),Gal6S(b1-3)GlcNAc,-0.149
same,glycan array binding signal (z-score),Gal6S(b1-3)GlcNAc6S,-0.144
same,glycan array binding signal (z-score),Gal6S(b1-4)Glc,-0.145
same,glycan array binding signal (z-score),Gal6S(b1-4)Glc6S,-0.144
